# Experimental data as given in the supplement of paper PMC4967469.
# Compound: NC(=O)[C@@H](CCC(F)(F)F)N(Cc1ccc(-c2ncon2)cc1F)S(=O)(=O)c1ccc(Cl)cc1 [BMS-708163]
# Experiment: Viability of human cancer cell lines after 72 h of drug (GDSC screen)
# Conditions: screen: GDSC drug entry 205; top dose inferred
# Experimental: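 Human cancer cell lines in 384-well plates, medium with 10% serum, drug for 72 h over a 256-fold dose range (nine 2-fold or five 4-fold steps up to the top dose). Adherent lines were fixed and stained with the nucleic acid dye Syto60, suspension lines read with resazurin; signal relative to control wells, capped at 0 and 100%. One two-parameter sigmoid per drug and line, fitted in a mixed model over all curves with the slope shared within a line.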
Cell Line,AUC,IC50 [µM]
"IST-MES1 (mesothelioma, adherent, top dose 10.24 µM)",0.981,> 10.2
"Mewo (melanoma, adherent, top dose 10.24 µM)",0.978,> 10.2
"ES8 (Ewing sarcoma, adherent, top dose 10.24 µM)",0.936,> 10.2
"OVCA420 (ovary, adherent, top dose 10.24 µM)",0.982,> 10.2
"OVCAR-3 (ovary, adherent, top dose 10.24 µM)",0.987,> 10.2
"RKO (large intestine, adherent, top dose 2.56 µM)",0.988,> 2.56
"SW1990 (pancreas, adherent, top dose 10.24 µM)",0.982,> 10.2
"BICR22 (head and neck, adherent, top dose 10.24 µM)",0.983,> 10.2
"HOP-62 (lung adenocarcinoma, adherent, top dose 10.24 µM)",0.984,> 10.2
"SN12C (kidney, adherent, top dose 10.24 µM)",0.984,> 10.2
"ML-1 (thyroid, adherent, top dose 10.24 µM)",0.984,> 10.2
"NB12 (neuroblastoma, adherent, top dose 10.24 µM)",0.977,> 10.2
"NOS-1 (osteosarcoma, adherent, top dose 10.24 µM)",0.964,> 10.2
"NUGC-3 (stomach, adherent, top dose 10.24 µM)",0.979,> 10.2
"TE-15 (oesophagus, suspension, top dose 10.24 µM)",0.96,> 10.2
"UWB1.289 (ovary, adherent, top dose 10.24 µM)",0.98,> 10.2
"CADO-ES1 (Ewing sarcoma, suspension, top dose 10.24 µM)",0.98,> 10.2
"KARPAS-299 (anaplastic large cell lymphoma, suspension, top dose 10.24 µM)",0.992,> 10.2
"KYSE-180 (oesophagus, adherent, top dose 10.24 µM)",0.986,> 10.2
"LNCaP-Clone-FGC (prostate, adherent, top dose 10.24 µM)",0.979,> 10.2
"OAW-28 (ovary, adherent, top dose 10.24 µM)",0.968,> 10.2
"TT2609-C02 (thyroid, adherent, top dose 10.24 µM)",0.979,> 10.2
"CP50-MEL-B (melanoma, adherent, top dose 10.24 µM)",0.988,> 10.2
"PCI-4B (head and neck, adherent, top dose 10.24 µM)",0.987,> 10.2

Cell Line,AUC,IC50 [µM]
"MRK-nu-1 (breast, suspension, top dose 10.24 µM)",0.99,> 10.2
"Hs683 (glioma, adherent, top dose 10.24 µM)",0.988,> 10.2
"NCI-H1092 (small cell lung carcinoma, suspension, top dose 10.24 µM)",0.99,> 10.2
"HEL (acute myeloid leukaemia, semi-adherent, top dose 10.24 µM)",0.942,> 10.2
"OV-17R (ovary, adherent, top dose 10.24 µM)",0.981,> 10.2
"TE-1 (oesophagus, adherent, top dose 10.24 µM)",0.977,> 10.2
"PA-1 (ovary, adherent, top dose 10.24 µM)",0.993,> 10.2
"NCI-H1975 (lung adenocarcinoma, adherent, top dose 2.56 µM)",0.983,> 2.56
"NUGC-4 (stomach, adherent, top dose 10.24 µM)",0.984,> 10.2
"NB14 (neuroblastoma, adherent, top dose 10.24 µM)",0.989,> 10.2
"AMO-1 (haematopoietic neoplasm, suspension, top dose 10.24 µM)",0.962,> 10.2
"OE33 (oesophagus, adherent, top dose 10.24 µM)",0.968,> 10.2
"SK-N-AS (neuroblastoma, adherent, top dose 10.24 µM)",0.977,> 10.2
"MDA-MB-415 (breast, adherent, top dose 10.24 µM)",0.983,> 10.2
"JIMT-1 (breast, adherent, top dose 10.24 µM)",0.981,> 10.2
"LC4-1 (lymphoblastic leukaemia, suspension, top dose 10.24 µM)",0.976,> 10.2
"SNU-449 (liver, adherent, top dose 10.24 µM)",0.962,> 10.2
"Caov-4 (ovary, adherent, top dose 10.24 µM)",0.966,> 10.2
"Mo-T (hairy cell leukaemia, suspension, top dose 10.24 µM)",0.97,> 10.2
"LOXIMVI (melanoma, semi-adherent, top dose 10.24 µM)",0.99,> 10.2
"SK-N-DZ (neuroblastoma, adherent, top dose 10.24 µM)",0.988,> 10.2
"OVKATE (ovary, adherent, top dose 10.24 µM)",0.972,> 10.2
"OVTOKO (ovary, adherent, top dose 10.24 µM)",0.976,> 10.2
"SW620 (large intestine, adherent, top dose 2.56 µM)",0.99,> 2.56

Cell Line,AUC,IC50 [µM]
"MOLT-13 (T-cell lymphoblastic leukaemia, suspension, top dose 10.24 µM)",0.897,9.98
"CHL-1 (melanoma, adherent, top dose 10.24 µM)",0.986,> 10.2
"SW626 (ovary, adherent, top dose 10.24 µM)",0.951,> 10.2
"KYSE-150 (oesophagus, adherent, top dose 10.24 µM)",0.989,> 10.2
"YMB-1-E (breast, adherent, top dose 10.24 µM)",0.979,> 10.2
"KYSE-70 (oesophagus, adherent, top dose 10.24 µM)",0.987,> 10.2
"CAL-148 (breast, suspension, top dose 10.24 µM)",0.989,> 10.2
"CFPAC-1 (pancreas, adherent, top dose 10.24 µM)",0.984,> 10.2
"THP-1 (acute myeloid leukaemia, suspension, top dose 10.24 µM)",0.981,> 10.2
"KMRC-20 (kidney, adherent, top dose 10.24 µM)",0.987,> 10.2
"NCI-H1770 (non-small cell lung carcinoma, suspension, top dose 10.24 µM)",0.992,> 10.2
"KARPAS-45 (lymphoblastic leukaemia, suspension, top dose 2.56 µM)",0.966,> 2.56
"WIL2-NS (lymphoid neoplasm, suspension, top dose 10.24 µM)",0.976,> 10.2
"NCI-H2141 (small cell lung carcinoma, suspension, top dose 10.24 µM)",0.984,> 10.2
"U-118-MG (glioma, adherent, top dose 10.24 µM)",0.975,> 10.2
"SCC-3 (B-cell lymphoma, suspension, top dose 10.24 µM)",0.996,> 10.2
"HLE (liver, adherent, top dose 10.24 µM)",0.989,> 10.2
"42-MG-BA (glioma, adherent, top dose 10.24 µM)",0.985,> 10.2
"GB-1 (glioma, adherent, top dose 10.24 µM)",0.982,> 10.2
"MFM-223 (breast, adherent, top dose 10.24 µM)",0.987,> 10.2
"NCI-H2085 (lung adenocarcinoma, adherent, top dose 10.24 µM)",0.986,> 10.2
"NCI-H211 (small cell lung carcinoma, adherent, top dose 10.24 µM)",0.98,> 10.2
"YKG-1 (glioma, adherent, top dose 10.24 µM)",0.985,> 10.2
"MZ1-PC (pancreas, adherent, top dose 10.24 µM)",0.971,> 10.2

# Same assay, conditions: top dose 5 µM; screen: GDSC drug entry 1072; top dose inferred
Cell Line,AUC,IC50 [µM]
"D-566MG (glioma, adherent)",0.983,> 5
"PWR-1E (prostate, adherent)",0.984,> 5
"BT-549 (breast, adherent)",0.976,> 5
"H513 (mesothelioma, semi-adherent)",0.967,> 5
"CL-40 (large intestine, adherent)",0.894,> 5
"DOV13 (ovary, adherent)",0.977,> 5
"OV-17R (ovary, adherent)",0.977,> 5
"OVCA420 (ovary, adherent)",0.964,> 5
"KYAE-1 (oesophagus, suspension)",0.981,> 5

# The IC50 comes from the fitted curve, where viability falls to half of the control; where the fit passes the top or lowest dose, that dose stands as a limit. AUC is the area under the same curve over the 256-fold range up to the top dose, as a fraction; it is 1 without any effect and falls as sensitivity rises. Where the top dose is marked as inferred, it comes from the curve model; the source does not state it. Where an entry number is given, a second screen of the drug exists; the two often differ.
